{"source": "the supplement of paper PMC10338343", "note": "± gives the standard deviation. The entries are a selection whose mix differs from that of the whole data set."}
{"tested_on": "MIWI (PIWIL1) piRISC loaded with piRNA #1 (30 nt)", "assay": "pre-steady-state target cleavage rate (min^-1); MIWI and MILI are mouse PIWI proteins and EfPiwi is from a freshwater sponge; tags in brackets are library labels; higher = faster piRNA-guided slicing of the target", "conditions": "guide: piRNA #1 5'p-UGAGGUAGUAGGUUGUAUAGUAUCCAGAGG; auxiliary factor: 500 nM mouse GTSF1", "outline": "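The pre-steady-state cleavage rate was obtained by Cleave-'n-Seq with a burst-and-steady-state fit. A transcribed, DNA-blocked target RNA library (0.1 nM) was mixed with 1 nM active affinity-purified piRISC carrying one synthetic guide, with or without 500 nM GTSF1 partner protein, in HEPES–potassium acetate buffer at 33 °C for 0–8 or 0–960 min. Uncleaved targets were sequenced and normalised to depth and to weakly complementary targets, with three trials pooled and k3 capped at 0.0001 min^-1.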"}
{"sequence": "GGUCUGCAUACAAUACAACCUACUACCUCA", "pre-steady-state target cleavage rate": "1.45 ± 0.11"}
{"sequence": "CCUGUGGAUACUAUACAACCUUCUACCUCA", "pre-steady-state target cleavage rate": "0.724 ± 0.032"}
{"sequence": "GGAGACCUAUGAUAUCAACCUACAACCUCA", "pre-steady-state target cleavage rate": "< 0.0001"}
{"sequence": "GGAGACCUAACUUUACAACCUACUACGUCA", "pre-steady-state target cleavage rate": "0.0913 ± 0.019"}
{"sequence": "GGAGACCUUACUUUACAACCUACUAGCUCA", "pre-steady-state target cleavage rate": "0.362 ± 0.047"}
{"sequence": "GGAGACCUAACUAUACAACCUACUGCCUCA", "pre-steady-state target cleavage rate": "0.496 ± 0.065"}
{"sequence": "GGAGAGGAUACUAUACAACCUACUCCCUCA", "pre-steady-state target cleavage rate": "0.174 ± 0.02"}
{"sequence": "CCUCUGGAUACUAUACAACGUAGUACCUCA", "pre-steady-state target cleavage rate": "0.0237 ± 0.0077"}
{"sequence": "GGAGACCUUACUAUACUACCUACUACCUGA", "pre-steady-state target cleavage rate": "0.247 ± 0.031"}
{"sequence": "GGAGACCUAUGAUAUGUACGUACUUCCUCA", "pre-steady-state target cleavage rate": "< 0.0001"}
{"sequence": "GGAGACCUAUCAAUACAACCUAGUACCUCA", "pre-steady-state target cleavage rate": "0.00728 ± 0.0036"}
{"sequence": "GGAGACGAUACUAUACAACCUUACUACCUCA", "pre-steady-state target cleavage rate": "0.00534 ± 0.0031"}
{"sequence": "GGUCUGGAUUCUAUACAACCUACUACCUGA", "pre-steady-state target cleavage rate": "0.796 ± 0.14"}
{"sequence": "GGAGAGGAUACUAAACAACCAACUACCUCA", "pre-steady-state target cleavage rate": "0.0998 ± 0.0098"}
{"sequence": "GGACUGGAUACUUUACAACCAACUACCUCA", "pre-steady-state target cleavage rate": "0.0795 ± 0.0081"}
{"sequence": "GGAGACCUAUCUAUACUACCUUCUACCUCA", "pre-steady-state target cleavage rate": "0.00801 ± 0.0025"}
{"sequence": "GGAGAGGAUACUCUACAACCUACUACCUCA", "pre-steady-state target cleavage rate": "1.57 ± 0.067"}
{"sequence": "GGAGACCUAACUAAUACAACCUACUACCUCA", "pre-steady-state target cleavage rate": "0.358 ± 0.064"}
{"sequence": "GGUCUGGAUACUAUACAACCUACUACCACA", "pre-steady-state target cleavage rate": "0.749 ± 0.058"}
{"sequence": "GGAGUGGAUACUAUUCAACCUACUUCCUCA", "pre-steady-state target cleavage rate": "0.00996 ± 0.0027"}
{"sequence": "GGACUGGAUACUAUAGAACCUACUACGUCA", "pre-steady-state target cleavage rate": "0.0162 ± 0.0043"}
{"sequence": "GCUCUGGUUACUAUACAACCUACUACGUCA", "pre-steady-state target cleavage rate": "0.654 ± 0.071"}
{"sequence": "GGAGUGGAUACUAAACAACCUAGUACCUCA", "pre-steady-state target cleavage rate": "0.315 ± 0.045"}
{"sequence": "GGAGACCAAAGUAUACAACCUACUACCUCA", "pre-steady-state target cleavage rate": "0.163 ± 0.022"}
